# PubChem BioAssay AID686978 (National Center for Advancing Translational Sciences (NCATS), 2013)
# Screen size: about 420,000 compounds; about 64,000 (15%) were called active. The inconclusive results got no clear call from the source; some entries with a clear call stand among them for comparison. Calls come from the whole dose curve; as a rule, active = well fitted inhibition curve with a large enough effect; inconclusive = small, poorly fitted or top-dose-only effect; inactive = flat fitted curve, though single readings scatter. Potencies of inconclusive entries are left out as doubtful fits.
# Assay: qHTS for Inhibitors of human tyrosyl-DNA phosphodiesterase 1 (TDP1): qHTS in cells in absence of CPT; note: nearly all actives have a fitted effect of over 55% in size
# Conditions: DT40 Tdp1-/- hTDP1 cells, no CPT, ATP luminescence, 48 h; activity change, negative = growth inhibition: at 46.2 µM (top of the series) unless noted
# Outline: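 Chicken DT40 Tdp1-/- cells stably complemented with human TDP1 were seeded at 400 cells/well with DMSO in place of 20 nM camptothecin. After compound pinning, cells grew at least 48 hr at 37 °C; viability read by CellTiter-Glo luminescence.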
# % is set by controls: 0 for no effect and ±100 for the full control effect; potency is the fitted concentration of half-maximal effect; tags give direction and shape of the fitted curve.
Compound,Potency,"activity change, negative = growth inhibition"
COc1ccccc1-n1c(SCC(N)=O)nnc1-c1ccc(S(=O)(=O)N2CCCCC2)cc1,"inconclusive [inhibitor, single point]",–
O=C(NC(=S)Nc1ccccc1N1CCCCC1)c1ccco1,"inconclusive [inhibitor, single point]",–
COc1cc(C(=O)N(C)CCOc2ccccc2)ccc1OCC(=O)Nc1cccc(C(F)(F)F)c1,active: 16.4 µM,–
CC(=O)N1CCC(N(CCCOC(C)C)S(=O)(=O)c2ccc([N+](=O)[O-])cc2)CC1,–,inactive: -9.9%
CN(C(=O)COc1ccccc1)c1nnc(C23CC4CC(CC(C4)C2)C3)s1,–,inconclusive: -32.4% [inhibitor]
CCS(=O)(=O)c1nc(S(=O)(=O)c2ccc(C)cc2)c(N2CCCC2)s1,–,inactive: 14.2%
O=C(NCc1cccs1)C1CC(=O)N(c2ccccc2)C1 (stereo unspecified),–,inactive: 1.36%
CS(=O)(=O)c1ccccc1-c1nnc(NC(=O)COc2ccc(Cl)cc2)o1,–,inactive: -9.1%
CCNC(=O)NCc1c(C)c(C)n(Cc2ccccc2)c1-n1cccc1,"inconclusive [inhibitor, single point]",–
CCCCCOc1ccc(C(O)C(CN2CCOCC2)c2ccccc2)cc1 (stereo unspecified),"inconclusive [inhibitor, single point]",–
CC(=O)N1CCc2cc(S(=O)(=O)CCC(=O)Nc3c(C)n(C)n(-c4ccccc4)c3=O)ccc21,–,inactive: -1.23%
COC(=O)C1=C(C)NC(=O)/C1=C\c1cccs1,"inconclusive [inhibitor, partial curve]",–
COC(=O)c1ccc(NC(=O)COc2ccccc2OC)cc1,"inconclusive [inhibitor, partial curve]",–
Cc1cc(NC(=O)c2cccc(S(=O)(=O)N3CCOCC3)c2)c2ccccc2n1,"inconclusive [inhibitor, partial curve, poor fit]",–
COc1cccc(CNC(=O)Nc2cn(CC(C)C)c(=O)c3ccccc23)c1,"inconclusive [inhibitor, single point]",–
CCOC(=O)C1=C(C)N=C2c3ccccc3C(=O)C2C1c1ccc(C)cc1 (stereo unspecified),"inconclusive [inhibitor, single point]",–
COC(=O)C1=C(C)NC(C)=C(C(=O)OC)C1C(=O)OCC(=O)N1CCCCC1C (stereo unspecified),–,inactive: 3.04%
COc1cccc(OCc2cc(C(=O)N3CCN(C(=O)c4ccco4)CC3)no2)c1,–,inactive: -24.7%
CCOC(=O)c1cc(-c2ccc(F)cc2)n(CCC(=O)Nc2nc3cc(C)c(C)cc3s2)c1C,"inconclusive [inhibitor, partial curve, poor fit]",–
Cc1cccc(OCCNC(=S)NC(=O)c2cncc(Br)c2)c1,–,inactive: -22.1%
COc1ccccc1C(=O)Nc1ccc(Br)cc1C,–,inactive: -21.4%
Cc1ccc2cc(C)c(SCC(=O)NCC3CCCO3)nc2c1 (stereo unspecified),"inconclusive [inhibitor, partial curve, poor fit]",–
CCOC(=O)c1cccnc1SCc1cc(=O)n2ccccc2n1,–,inconclusive: -30.8% [inhibitor]
OCCN1CCN(c2ncnc3c2cnn3-c2cccc(Cl)c2)CC1,"inconclusive [inhibitor, single point]",–

Compound,Potency,"activity change, negative = growth inhibition"
COC(=O)[C@H](Cc1ccccc1)NC(=O)[C@@]1(C)C[C@@H]1[C@@H](NC(=O)OCc1ccccc1)c1ccccc1,"inconclusive [inhibitor, partial curve]",–
COc1ccc(C2C(C(=O)Nc3ccc(OC)c(OC)c3)c3ccccc3C(=O)N2C)cc1 (stereo unspecified),–,inactive: -28.4%
COC(=O)CC1C(C)(C)C(O)C2CC3=C4CC(O)OC(c5ccoc5)[C@]4(C)CCC3[C@@]1(C)C2=O (stereo partly specified),"inconclusive [inhibitor, single point]",–
COc1ccc(OC)c(/C=C(\NC(=O)c2ccccc2)C(=O)N/N=C/c2ccc(C)s2)c1,–,inactive: -28.1%
O=S(=O)(Nc1cc(S(=O)(=O)N2CCOCC2)ccc1N1CCOCC1)c1ccc2c(c1)OCCO2,"inconclusive [inhibitor, single point]",–
COc1ccc(N2C(=O)CCC(C(=O)N3CCCCCC3)C2c2ccc(OC)c(OC)c2)cc1 (stereo unspecified),–,inactive: -3.01%
COCCOC(=O)c1[nH]c2c(c1C)C(=O)CC(c1ccc(N(C)C)cc1)C2 (stereo unspecified),"inconclusive [inhibitor, partial curve]",–
O=C(CN1CCN(c2nc(-c3ccc(F)cc3)cs2)CC1)NCc1ccc2c(c1)OCO2,"inconclusive [inhibitor, single point]",–
CCOC(=O)c1ccc(NC2c3ccccc3C(=O)N2c2cccnc2)cc1 (stereo unspecified),active: 10.3 µM,–
Cc1cccc(N(C)S(=O)(=O)c2nnc(NC(=O)C(C)(C)C)s2)c1,"inconclusive [inhibitor, single point]",–
N#CCSc1nn(-c2ccc(F)cc2)c(=S)s1,–,inactive: -15.7%
COc1cc(C2=NOC(C(=O)NCc3cccnc3)C2)cc(OC)c1OC (stereo unspecified),"inconclusive [inhibitor, partial curve, poor fit]",–
COc1ccc(N(CC(=O)Nc2ccccc2C(N)=O)S(=O)(=O)c2ccc(C)c([N+](=O)[O-])c2)cc1,active: 23.1 µM,–
COc1ccc(Cl)cc1NS(=O)(=O)c1cccc(C(=O)NCC2(N(C)C)CCCCC2)c1,"inconclusive [inhibitor, single point]",–
Cc1ccc(Cl)cc1NC(=O)Cn1nnc2sc3c(c2c1=O)CCC(C(C)(C)C)C3 (stereo unspecified),active: 4.11 µM,–
O=C(CN1CCOCCOCCN(CC(=O)Nc2ccccc2)CCOCC1)Nc1ccccc1,"inconclusive [inhibitor, partial curve]",–
COc1ccc(CCNC(=O)c2cc(-c3ccccc3O)n[nH]2)cc1OC,–,inactive: 11.9%
CCOC(=O)COc1ccccc1/C=C\[N+](=O)[O-],active: 1.64 µM,–
Cn1c(SCC(=O)N(Cc2ccccc2)C(C)(C)C)nc2ccccc21,"inconclusive [inhibitor, single point]",–
COc1cc(C(=O)N/N=C(\c2ccccc2)c2ccccn2)cc(OC)c1OC,active: 2.59 µM,–
COc1ccc2nc(N=Nc3ccc(O)c4ccccc34)sc2c1,active: 1.3 µM,–
Cc1c(NS(=O)(=O)c2cccs2)cccc1-c1nc2cccnc2s1,"inconclusive [inhibitor, partial curve]",–
OC(c1ccccc1)(c1nc(-c2ccc3c(c2)OCO3)cs1)C(F)(F)F (stereo unspecified),"inconclusive [inhibitor, single point]",–
N#CC(C(N)=O)=C1CCC2(CC1)OCCCCO2,–,inactive: 6.97%

Compound,Potency,"activity change, negative = growth inhibition"
COc1ccc(CCNc2ncnc3c2cnn3-c2ccc(F)cc2)cc1,"inconclusive [inhibitor, single point]",–
NNC(=S)Nc1ccc(S(=O)(=O)N2CCCCC2)cc1,–,inactive: -10.6%
CCn1c(=O)n(C)c2c(=O)n(C)c(=O)n(C)c21,–,inactive: -5.23%
CC(C)C[C@H](NC(=O)c1nc[nH]c1C(=O)NCc1ccccc1)C(=O)OC(C)(C)C,"inconclusive [inhibitor, single point]",–
Cc1ccc2c(C)c(C(=O)NCc3ccc(S(N)(=O)=O)cc3)oc2c1C,"inconclusive [inhibitor, single point]",–
Cc1ccc(S(=O)(=O)Nc2ccc(C(=O)N3CCCC3)cc2)cc1,–,inactive: -20.8%
O=c1c(-c2ccccc2)nc2cnc(Oc3ccccc3)nc2n1Cc1cccs1,"inconclusive [inhibitor, single point]",–
Cc1ccc(N2CCN(/N=C/c3cccs3)CC2)cc1,–,inactive: -15.1%
CCc1cc(-c2nc(N)ncc2-c2csc(C)n2)c(O)cc1OC,"inconclusive [inhibitor, single point]",–
C/C=C(/C)C(=O)O[C@@H]1c2cc(OC)c(OC)c(OC)c2-c2c(cc3c(c2OC)OCO3)C[C@H](C)[C@]1(C)O,"inconclusive [inhibitor, single point]",–
Cc1ccc(C)c(S(=O)(=O)N2CCCOC2CNC(=O)C(=O)NCc2ccccc2)c1 (stereo unspecified),"inconclusive [inhibitor, partial curve, poor fit]",–
O=[N+]([O-])c1cccc(-c2nc(NCc3ccccc3)c3ccccc3n2)c1,"inconclusive [inhibitor, single point]",–
CCCCNC(=O)N1CCC(CCC(=O)N(C)Cc2ccccc2)CC1,"inconclusive [inhibitor, single point]",–
Cc1ccc(OCCC(=O)OCC(=O)c2ccc3c(c2)NC(=O)CO3)cc1,–,inactive: 4.05%
Oc1ccc(/C=N/Nc2cccc3cccnc23)c(O)c1,"inconclusive [inhibitor, single point]",–
O=C(NCc1cnn(-c2ccccc2)c1)C1CCC(=O)N(C2CC2)C1 (stereo unspecified),–,inactive: 2.04%
Brc1ccc(CN2CCc3nc(Nc4ccccc4)ncc3C2)s1,"inconclusive [inhibitor, single point]",–
O=C(CSc1nnc2ccccn12)NCCc1ccc(Cl)cc1,–,inactive: 3.9%
Cc1ccc(Cc2c(-c3ccccc3)nc3c4ccccc4ccn23)cc1,active: 20.6 µM,–
CCCN1C(=O)SC(CC(=O)Nc2ccc(C)cc2)C1=O (stereo unspecified),"inconclusive [inhibitor, single point]",–
CC(=O)N1c2c(cc(Br)cc2S(=O)(=O)NCc2ccc3c(c2)OCO3)CC1C (stereo unspecified),–,inactive: -2.25%
COc1ccc(C(c2nnnn2Cc2cccs2)N2CCN(c3ccccc3F)CC2)cc1OC (stereo unspecified),"inconclusive [inhibitor, single point]",–
COc1ccc(OC)c(CNC(=O)c2cc3c(=O)oc4ccc(C)cc4c3s2)c1,"inconclusive [inhibitor, single point]",–
